Data on 21 molecules can be found in patent US20260176344A1 (SUZHOU ALPHAMAB, published 2026).

What is called Kd is the constant that tells how readily two partners part at equilibrium. Read a high Kd as weaker binding. The koff is the first-order rate constant of dissociation. The term kon denotes a measure of how fast the partners come together. Lower therefore signals slow association.

First the molecules themselves.
T1: GIPR-ECD-chis (a his tag-fused human GIPR extracellular region fragment) (human, UniProt P48546 22-138, limits assumed)
T1 construct: extracellular domain; not shown: his tag
T1 sequence (looked up): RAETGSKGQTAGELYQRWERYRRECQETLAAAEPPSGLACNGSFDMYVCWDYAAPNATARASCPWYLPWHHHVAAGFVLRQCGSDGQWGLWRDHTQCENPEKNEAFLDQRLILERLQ

T2: human GIPR expressed on HEK293T cells (human, UniProt P48546 22-466)
T2 construct: whole, on cells; Two cell lines are used (293T-GIPR; 293T-GIPRFL-GFP-PURO-5, stably expressing full-length human GIPR on the membrane); both are treated as human GIPR on cells; also called 293T-GIPR; 293T-GIPRFL-GFP-PURO-5
T2 sequence (looked up): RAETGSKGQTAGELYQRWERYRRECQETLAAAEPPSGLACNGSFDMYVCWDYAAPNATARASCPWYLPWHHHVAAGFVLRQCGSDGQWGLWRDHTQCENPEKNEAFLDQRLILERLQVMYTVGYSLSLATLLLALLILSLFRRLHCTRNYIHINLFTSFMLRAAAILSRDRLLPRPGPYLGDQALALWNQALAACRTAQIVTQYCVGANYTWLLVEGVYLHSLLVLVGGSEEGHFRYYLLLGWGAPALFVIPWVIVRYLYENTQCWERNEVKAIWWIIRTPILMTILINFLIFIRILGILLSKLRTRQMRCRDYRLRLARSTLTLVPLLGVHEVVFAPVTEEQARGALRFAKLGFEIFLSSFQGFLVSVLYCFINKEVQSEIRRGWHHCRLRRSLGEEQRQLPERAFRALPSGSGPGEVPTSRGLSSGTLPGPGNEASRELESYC

B1: iGI-72-Ld-Fc (Fc fusion)
chain: QVQLVESGGGLVQPGGSLRLSCAASRYTLDYYAIGWFRQAPGKEREGVSCINSKDGSTYYADSVKGRFTISKDNAKNTVYLQMNSLKPEDTAVYYCAAGYDPWSGIPPVQAMCVMGYDYWGQGTQVTVSS[human IgG1 Fc not written out]
notes: also called iGI72-72-Ld-Fc
B2: huGI-72v2-Ld-Fc (Fc fusion)
chain: B1 chain with Q1E, K72R, A75S, K87R, P88A, Q125L
notes: also called huG1-72v2 (VHH part)
B3: huGI-72v6-Ld-Fc (Fc fusion)
chain: B1 chain with A23S, K72R, A75S, K87R, P88A, Q125L
notes: also called huG1-72v6 (VHH part)
B4: huGI-72v3-Ld-Fc (Fc fusion)
chain: B1 chain with Q1E, E44G, R45L, A75S, K87R, P88A, Q125L
notes: also called huG1-72v3 (VHH part)
B5: huGI-72v7-Ld-Fc (Fc fusion)
chain: B1 chain with A23S, E44G, R45L, A75S, K87R, P88A, Q125L
notes: also called huG1-72v7 (VHH part)
B6: huGI-72v5-Ld-Fc (Fc fusion)
chain: B1 chain with A23S, A75S, K87R, P88A, Q125L
notes: also called huG1-72v5 (VHH part)
B7: huGI-72v1-Ld-Fc (Fc fusion)
chain: B1 chain with Q1E, A75S, K87R, P88A, Q125L
notes: also called huG1-72v1 (VHH part)
B8: huGI-72v4-Ld-Fc (Fc fusion)
chain: B1 chain with Q1E, E44G, R45L, K72R, A75S, K87R, P88A, Q125L
notes: also called huG1-72v4 (VHH part)
B9: iGI-44-Ld-Fc (Fc fusion)
chain: QVQLVESGGGLVQAGGSLKLSCAASGRTFSSKAMGWFRQAPGKEREFVAAINWSGDRTYHVNSIKGRFTISRDNAKNTVYLQMNSLKPEDTAVYYCTADRRDRATIPFQWHYWGQGTQVTVSS[human IgG1 Fc not written out]
B10: iGI-27-Ld-Fc (Fc fusion)
chain: QVQLVESGGALVQTGGSLRLFCAASGDTICITNMNWYRQAPGKGREFVAAITRSGRTLYADYVKGRFTISRDNARNTMSLQMNSMTSEDTAVYYCNADQNQTICAAEPSAWGRGTQVTVSS[human IgG1 Fc not written out]
B11: iGI-9-Ld-Fc (Fc fusion)
chain: QVQLVESGGGLVQPGGSLRLSCETSKILFSSAYTMGWYRQAPGKQRELVATITTDYITNYVDSVKGRFTISRDNAKNTVYLQMNTLKLEDTAVYYCNARWGRDYWGQGTQVTVSS[human IgG1 Fc not written out]
notes: also called iGl-9-Ld-Fc
B12: iGI-51-Ld-Fc (Fc fusion)
chain: QVQLVESGGKLVQAGGSLRLDCVASGRTFSYYAIGWYRQAPGKEREFVAAIRASGGSTYYADSVKGRFTASRDNAKNTGYLQMNSLKPEDTAVYFCYAATIVPITPSTHGYWGQGTQVTVSS[human IgG1 Fc not written out]
B13: iGI-1198-Ld-Fc (Fc fusion)
chain: QVQLQESGGGLVQPGGSLRLSCVASGSGFSIVAMGWYRQTPGKQRELVAAITSGGNTNYADSVKGRFTISRDNAKNTIYLQMNSLKPEDTAVYYCNADPGVVAGPYAGMDFWGKGTQVTVSS[human IgG1 Fc not written out]
B14: huGI-1198n11-Ld-Fc (Fc fusion)
chain: B13 chain with V23S, Q117T
notes: also called huG1-1198n11 (VHH part)
B15: huGI-1198n9-Ld-Fc (Fc fusion)
chain: B13 chain with Q5V, V23S, A74S, K86R, P87A, Q117T
notes: also called huG1-1198n9 (VHH part)
B16: huGI-1198n10-Ld-Fc (Fc fusion)
chain: B13 chain with V23S, K86R, P87A, Q117T
notes: also called huG1-1198n10 (VHH part)
B17: huGI-1198n8-Ld-Fc (Fc fusion)
chain: B13 chain with V23S, Q44G, R45L, A74S, K86R, P87A, Q117T
notes: also called huG1-1198n8 (VHH part)
B18: huGI-1198n7-Ld-Fc (Fc fusion)
chain: B13 chain with Q5V, V23S, Q44G, R45L, A74S, K86R, P87A, Q117T
notes: also called huG1-1198n7 (VHH part)
B19: huGI-1198n4-Ld-Fc (Fc fusion)
chain: B13 chain with Q5V, V23S, Y37V, T40A, A74S, K86R, P87A, Q117T
notes: also called huG1-1198n4 (VHH part)
B20: huGI-1198n5-Ld-Fc (Fc fusion)
chain: B13 chain with V23S, Y37V, K86R, P87A, Q117T
notes: also called huG1-1198n5 (VHH part)
B21: huGI-1198n6-Ld-Fc (Fc fusion)
chain: B13 chain with V23S, Y37V, Q117T
notes: also called huG1-1198n6 (VHH part)

Positions count from the first letter of the chain named.

The target in one test is T1, GIPR-ECD-chis (a his tag-fused human …). Briefly: BLI, Fc fusion on AHC sensor, GIPR-ECD-chis in solution. (In general: Biolayer interferometry detects binding as a change in optical thickness at a sensor tip.)
In turn, B1 yielded a Kd of 1.19 nM, a koff of 0.000285 s⁻¹ and a kon of 239000 M⁻¹ s⁻¹.
Turning to B2, the Kd amounted to 1.74 nM, the koff is 0.00037 s⁻¹ and the kon came out at 212000 M⁻¹ s⁻¹.
As for B3, binding was characterised by a dissociation constant (Kd) of 1.23 nM, the koff is 0.000283 s⁻¹ and the on-rate constant (kon) is 230000 M⁻¹ s⁻¹.
The molecule B4 had a dissociation constant (Kd) of 1.56 nM, a koff of 0.000256 s⁻¹ and a kon of 164000 M⁻¹ s⁻¹.
Molecule B5 returned a Kd of 1.53 nM, a koff of 0.000276 s⁻¹ and a kon of 180000 M⁻¹ s⁻¹.
On the same counts, the results for B6 are 0.903 nM, 0.000182 s⁻¹ and 202000 M⁻¹ s⁻¹.
Turning to B7, binding was characterised by a dissociation constant (Kd) of 1.17 nM, the dissociation rate constant (koff) came out at 0.00026 s⁻¹ and the association rate constant (kon) was determined as 223000 M⁻¹ s⁻¹.
The molecule B8 came in with a Kd of 0.716 nM, a koff of 0.000119 s⁻¹ and a kon of 166000 M⁻¹ s⁻¹.

The target of the next test is T2, human GIPR expressed on HEK293T cells. Briefly: flow cytometry on 293T-GIPR cells, 10 µg/mL, anti-human IgG-APC. A general note: In flow cytometry, cells or beads pass a laser one at a time.
As to B1, the MFI is 5140 MFI.
Molecule B9 came in with an MFI of 6580 MFI.
B10 showed an MFI of 190 MFI.
Same read-out and setting: the same measure for B11: 6320 MFI; for B12: 5960 MFI.

For a further test, the target named is T1, GIPR-ECD-chis (a his tag-fused human …). Briefly: BLI, Fc fusion on AHC sensor, GIPR-ECD-chis in solution. This is another data set of the same source.
Regarding B13, the Kd turned out to be 3.5 nM, the koff amounted to 0.000222 s⁻¹ and the kon is 63400 M⁻¹ s⁻¹.
The molecule B14 registered a Kd of 5.1 nM, a koff of 0.000379 s⁻¹ and an association rate constant (kon) of 74400 M⁻¹ s⁻¹.
B15 returned a Kd of 3.7 nM, a koff of 0.000252 s⁻¹ and an on-rate constant (kon) of 68000 M⁻¹ s⁻¹.
As for B16, the affinity, expressed as Kd, was 5.42 nM; the off-rate constant (koff) is 0.000359 s⁻¹; the kon was 66300 M⁻¹ s⁻¹.
Molecule B17 showed a Kd of 2.94 nM, a dissociation rate constant (koff) of 0.000218 s⁻¹ and a kon of 74200 M⁻¹ s⁻¹.
Take B18: the dissociation constant (Kd) stood at 2.46 nM, the koff was found to be 0.0002 s⁻¹ and the on-rate (kon) was found to be 81400 M⁻¹ s⁻¹.

The next test shares this target. The description is as above. The source holds these as a separate data set.
As for B13, the koff came out at 0.000156 s⁻¹ and the kon was found to be 83900 M⁻¹ s⁻¹.
For the molecule B19, binding was characterised by a dissociation constant (Kd) of 2.32 nM, the dissociation rate constant (koff) amounted to 0.000205 s⁻¹ and the kon came to 88100 M⁻¹ s⁻¹.
Turning to B20, the dissociation constant Kd was 2.09 nM, the dissociation rate constant (koff) came to 0.000169 s⁻¹ and the kon worked out at 81000 M⁻¹ s⁻¹.
In turn, B21 displayed a Kd of 2.83 nM, a koff of 0.000242 s⁻¹ and a kon of 85500 M⁻¹ s⁻¹.

Another test shares this target. Described as above. This is another data set of the same source.
B6 showed a dissociation constant Kd of 2.77 nM, an off-rate (koff) of 0.000575 s⁻¹ and a kon of 208000 M⁻¹ s⁻¹.

For another test, the target named is T2, human GIPR expressed on HEK293T cells. The test can be described thus: cell-based or functional assay.
B1: the “MEAN cAMP expression level (pM), +100 ng/mL GIP-C12H4-Fc4, fusion protein 0.1 µg/mL” value came to 119 pM; the “MEAN cAMP expression level (pM), +100 ng/mL GIP-C12H4-Fc4, fusion protein 1 µg/mL” value came out at 52.7 pM; the “MEAN cAMP expression level (pM), +100 ng/mL GIP-C12H4-Fc4, fusion protein 10 µg/mL” value amounted to 5.79 pM.
B9: the “MEAN cAMP expression level (pM), +100 ng/mL GIP-C12H4-Fc4, fusion protein 0.1 µg/mL” value came out at 131 pM; the “MEAN cAMP expression level (pM), +100 ng/mL GIP-C12H4-Fc4, fusion protein 1 µg/mL” value came out at 114 pM; the “MEAN cAMP expression level (pM), +100 ng/mL GIP-C12H4-Fc4, fusion protein 10 µg/mL” value stood at 122 pM.
Regarding B11, the “MEAN cAMP expression level (pM), +100 ng/mL GIP-C12H4-Fc4, fusion protein 0.1 µg/mL” value was found to be 92.9 pM; the “MEAN cAMP expression level (pM), +100 ng/mL GIP-C12H4-Fc4, fusion protein 1 µg/mL” value came out at 125 pM; the “MEAN cAMP expression level (pM), +100 ng/mL GIP-C12H4-Fc4, fusion protein 10 µg/mL” value is 114 pM.
Turning to B12, the “MEAN cAMP expression level (pM), +100 ng/mL GIP-C12H4-Fc4, fusion protein 0.1 µg/mL” value was found to be 112 pM; the “MEAN cAMP expression level (pM), +100 ng/mL GIP-C12H4-Fc4, fusion protein 1 µg/mL” value turned out to be 109 pM; the “MEAN cAMP expression level (pM), +100 ng/mL GIP-C12H4-Fc4, fusion protein 10 µg/mL” value worked out at 137 pM.

A further test deals with T1, GIPR-ECD-chis (a his tag-fused human …). The test can be described thus: BLI, Fc fusion on AHC sensor, GIPR-ECD-chis in solution. This is another data set of the same source.
For the molecule B1, the dissociation constant (Kd) came to 0.162 nM, the dissociation rate constant (koff) is 3.16e-05 s⁻¹ and the on-rate (kon) stood at 196000 M⁻¹ s⁻¹.

The target in another test is T2, human GIPR expressed on HEK293T cells. Briefly: flow cytometry on 293T-GIPR cells, 100 µg/mL, anti-human IgG-APC.
Take B1: the MFI came to 6960 MFI.
Molecule B9 registered an MFI of 6290 MFI.
Turning to B10, the MFI was 217 MFI.
As to B11, the MFI was 6500 MFI.
B12 showed an MFI of 5520 MFI.

The next test deals with T1, GIPR-ECD-chis (a his tag-fused human …). The test can be described thus: BLI, Fc fusion on AHC sensor, GIPR-ECD-chis in solution. This is another data set of the same source.
Take B1: the Kd stood at 0.59 nM, the dissociation rate constant (koff) is 8.69e-05 s⁻¹ and the on-rate constant (kon) amounted to 147000 M⁻¹ s⁻¹.
With B13, the Kd turned out to be 1.86 nM, the koff is 0.000156 s⁻¹ and the kon is 83900 M⁻¹ s⁻¹.
